Screen size: about 310,000 compounds; about 2,200 (0.71%) showed an effect of 50% or more. The effect is printed as a negative number. The list shows a part of the results.
Each compound was assayed against human ether-à-go-go-related gene (hERG) potassium channel (human, UniProt Q12809) (assay: primary screen, population patch clamp on CHO cells stably expressing hERG).
Sequence of human ether-à-go-go-related gene (hERG) potassium channel (Q12809 whole entry, looked up): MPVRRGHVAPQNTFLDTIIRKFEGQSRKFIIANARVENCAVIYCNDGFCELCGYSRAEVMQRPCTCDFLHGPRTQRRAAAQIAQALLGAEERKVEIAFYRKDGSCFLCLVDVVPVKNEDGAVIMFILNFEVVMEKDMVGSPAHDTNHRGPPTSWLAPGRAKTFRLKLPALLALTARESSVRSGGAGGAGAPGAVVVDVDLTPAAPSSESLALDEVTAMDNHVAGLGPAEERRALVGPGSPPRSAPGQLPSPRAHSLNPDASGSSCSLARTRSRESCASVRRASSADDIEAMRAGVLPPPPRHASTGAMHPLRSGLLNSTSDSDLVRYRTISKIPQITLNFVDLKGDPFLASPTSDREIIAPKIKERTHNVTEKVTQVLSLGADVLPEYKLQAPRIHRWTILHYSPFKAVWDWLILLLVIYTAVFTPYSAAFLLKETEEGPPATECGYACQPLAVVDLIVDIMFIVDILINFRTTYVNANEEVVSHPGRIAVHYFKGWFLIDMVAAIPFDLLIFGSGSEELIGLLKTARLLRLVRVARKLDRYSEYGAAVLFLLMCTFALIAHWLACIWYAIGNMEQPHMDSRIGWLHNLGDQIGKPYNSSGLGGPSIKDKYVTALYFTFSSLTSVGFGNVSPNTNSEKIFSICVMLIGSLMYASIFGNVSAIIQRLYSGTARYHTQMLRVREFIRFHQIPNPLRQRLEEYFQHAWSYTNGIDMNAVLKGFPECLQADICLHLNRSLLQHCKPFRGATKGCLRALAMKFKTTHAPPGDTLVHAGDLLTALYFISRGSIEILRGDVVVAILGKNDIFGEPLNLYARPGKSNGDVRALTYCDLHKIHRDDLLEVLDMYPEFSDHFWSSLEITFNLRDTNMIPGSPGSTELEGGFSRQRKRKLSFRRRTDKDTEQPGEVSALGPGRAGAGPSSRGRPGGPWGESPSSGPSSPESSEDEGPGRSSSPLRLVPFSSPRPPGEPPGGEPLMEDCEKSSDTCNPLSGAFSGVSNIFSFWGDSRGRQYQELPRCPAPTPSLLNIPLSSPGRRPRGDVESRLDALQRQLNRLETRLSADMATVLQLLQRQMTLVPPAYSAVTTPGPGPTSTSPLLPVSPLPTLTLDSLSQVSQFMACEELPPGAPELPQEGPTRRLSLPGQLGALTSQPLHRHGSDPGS

SMILES	hERG current change (%, negative = inhibition) at 1uM [%]
O=C(NCc1ccccn1)C(=O)Nc1cc2c3c(c1)CC(=O)N3CCC2	6.57
Cc1ccccc1NC(=O)c1cccc(NC(=O)c2c(C(=O)O)cccc2[N+](=O)[O-])c1	-1.35
Cc1ncc(CC(=O)n2cc(C(=O)c3cc(F)ccc3O)cn2)s1	-1.35
Cc1ccc(-c2nc(Nc3ccc(N4CCOCC4)cc3)c3ccccc3n2)cc1	10.4
Nn1cnnc1SC1CCCCC1NS(=O)(=O)c1ccccc1 (stereo not shown)	13.6
O=C(/C=C/c1cccc([N+](=O)[O-])c1)N(c1ccccn1)c1ccccn1	2.8
COc1ccccc1NC(=O)COC(=O)c1cn(C)c2ccccc12	-3.06
O=C1C2C3CCC(C3)C2C(=O)N1CNc1ccccc1 (stereo not shown)	1.54
Cn1c(=O)c2cc3c(nc2n(C)c1=O)CC(c1ccccc1)CC3=O (stereo not shown)	11.4
c1ccc(CSc2nnc(SCc3ccccn3)s2)nc1	-8.1
COC(=O)c1cc(NS(=O)(=O)c2ccc(N3CCOCC3)c(NC(C)=O)c2)cc(C(=O)OC)c1	15.6
Cc1cccc(C)c1NC(=O)CSc1nnc(CCCCCNC(=O)OC(C)(C)C)o1	-8.78
COCCCn1c(C(=O)N2CCOCC2)cc2c(=O)n3cccc(C)c3nc21	1.75
COc1ccc(N2CC(C(=O)Nc3nnc(SCC(=O)NCC4CCCO4)s3)CC2=O)cc1 (stereo not shown)	13.9
Cc1ccc(C)c(NS(=O)(=O)c2c(C)nn(C)c2C)c1	12.5
COCC1CCN(C(=O)c2cc(COc3ccc(F)cc3F)on2)C1 (stereo not shown)	12.2
COc1cccc(CNc2ccc(N3CCCCC3)cc2)c1OC	5.1
Cn1nc(C(C)(C)C)c([N+](=O)[O-])c1C(=O)NC1CCCCC1	4.33
C[C@]12C(=O)N(c3cccc(Cl)c3)C(=O)N1[C@H]1c3ccccc3OC[C@@H]1[C@H]2c1ccccc1	16
Oc1ccccc1/C=N/Nc1ccccc1	14.5
COC(=O)C1=C(C(=O)OC)[C@@H]2N(C)c3ccc(OC)cc3[C@@]23C[C@@H](C(=O)OC)N(C(=O)c2cccs2)C3=N1	3.84
CCOC(=O)N1CCN(C(=O)CSc2ncnc3ccccc23)CC1	-5.95

SMILES	hERG current change (%, negative = inhibition) at 1uM [%]
Cc1ccc(NC(=S)Nc2cc(-c3ccccc3)[nH]n2)cc1Cl	10.5
COc1ccc(/C=N/OCc2ccccc2C#N)c(OC)c1	15.6
Cc1ccsc1C=C1C(=O)c2ccccc2C1=O	17.8
CS(=O)(=O)c1nc(S(=O)(=O)c2ccc(Cl)cc2)c(N2CCCCCC2)s1	11
CSc1nc2nc(C)cc(-c3ccccc3)n2n1	0.859
CCOCCCNCC(=O)Nc1ccc(OC(F)(F)F)cc1.Cl	-13.5
CCOc1cccc(C(=O)NC2CCCCC2)c1	-4.29
CCN1CCN(c2ncnc3scc(-c4ccc(C)c(C)c4)c23)CC1	-50.8
CC(=O)NCCNC(=O)CCNC(=O)c1ccc(Cl)cc1	10.3
CCOc1ccc(C(C)=O)cc1Cn1c(=O)oc2ccccc21	14.3
CSc1nc2ccc3nc(NC(=O)c4ccc(C)cc4)sc3c2s1	11
CCOc1ccc(C(=O)NCC(=O)OCc2c(C)noc2C)cc1	6.96
CC(=O)c1c(C)[nH]c(C(=O)OCc2ccccc2F)c1C	2.11
CC1CCC2(CC1)NC(=O)N(CC(=O)N(Cc1ccccc1)C(C)(C)C)C2=O (stereo not shown)	13.4
COc1cccc(NC2=C(Cl)C(=O)OC2OC(=O)c2ccco2)c1 (stereo not shown)	8.22
O=C(OCC(=O)N1CCc2ccccc21)c1ccccc1[N+](=O)[O-]	7.79
O=C(COc1ccccc1)Nc1ccccc1F	9.15
Cc1nnc(NC(=O)c2ccc(S(=O)(=O)N3CC(C)CC(C)C3)cc2)o1 (stereo not shown)	12.9
O=C(CN(Cc1cccs1)C(=O)CNS(=O)(=O)c1ccc(Cl)cc1)NCC1CCCO1 (stereo not shown)	8.49
O=C(NNc1nc(-c2ccccc2)cs1)c1ccccc1	14
Cc1ccc(-n2ccc(=O)c(C(=O)Nc3ccc(S(=O)(=O)N4CCOCC4)cc3)n2)cc1	9.71
CC(C)(C)NC(=O)NC(=O)COC(=O)c1cccc(S(=O)(=O)N2CCCCC2)c1	4.37

SMILES	hERG current change (%, negative = inhibition) at 1uM [%]
O=C1CC(C(=O)O)S/C(=N\NC(=O)c2ccc(F)cc2)N1 (stereo not shown)	1.14
CC1(C)CC(=O)c2cc(N=C/C(C(=O)c3ccccc3)=C(\O)c3ccccc3)c(=O)oc2C1	9.14
Cc1cc(C(=O)OCC(=O)c2ccc(Br)s2)c(C)o1	4.75
c1ccc(CNc2ncnc3sc4c(c23)CCCC4)nc1	2.28
CC(/C=N/NC(=O)c1nnn(-c2nonc2N)c1CN1CCCCC1)c1ccccc1 (stereo not shown)	12.1
Cc1nc2ccccc2c2c1C(=O)N(c1cccc(C(=O)O)c1)C2=O	17.7
Clc1ccc(Cl)c(OCc2cc(-c3ccccc3Cl)on2)c1	15.8
Nc1ccc(-c2ccc(C(=O)O)s2)cn1	12.5
O=C(Nc1ccc2c(c1)OCCO2)C1CCCN(S(=O)(=O)c2cccs2)C1 (stereo not shown)	10.7
COc1ccccc1OCc1ccc(C(=O)NN)o1	15.6
CCc1n[nH]c(=S)n1/N=C/c1ccc2c(c1)OCO2	8.4
C[N+](C)(C)CC(=O)Nc1ccc(Cl)cc1C(=O)c1ccccc1.[Br-]	12.2
Cc1cc(CNC(=O)c2cccnc2Cl)c2ccccc2n1	-5.22
O=C(NCc1nc(-c2ccccc2)no1)c1ccc(Br)o1	8.02
COc1ccc(CN(C(=O)c2snc(C(N)=O)c2N)C(CC(C)C)C(=O)NC2CCCCC2)cc1 (stereo not shown)	6.86
O=C(O)CCCC(=O)Nc1ccccc1C(=O)N1CCOCC1	14.3
NC(=O)c1ccccc1N/C=C/C(=O)c1ccco1	14.4
NC(=O)CN(N=Nc1cccc([N+](=O)[O-])c1)c1cccc([N+](=O)[O-])c1	1.36
O=C(CCN1C(=O)C2C3C=CC(C3)C2C1=O)Nc1ccc(F)cc1 (stereo not shown)	5.83
CCCn1c(SCC(=O)NCC)nc2sc3c(c2c1=O)CCC3	7.52
COc1cc2c(cc1OC)CN(C(=O)Cc1ccc(OC)c(S(=O)(=O)N3CCOCC3)c1)CC2	-1.16
O=C(Nc1ccccc1)[C@@H]1CC=C[C@@H]2CCN(Cc3ccccc3)C(=O)[C@@H]21	10.9

SMILES	hERG current change (%, negative = inhibition) at 1uM [%]
CN(c1ccccc1)S(=O)(=O)c1cccc(NC(=O)CCNC(=O)c2ccc(Cl)cc2)c1	4.55
CCO[C@@H]1OC(C(=O)NCc2nc3ccccc3[nH]2)=C[C@H](c2coc3ccccc3c2=O)[C@H]1CCCO	6.96
COc1ccc(C(=O)NCCC(=O)NCc2cc(=O)n(C)c(=O)n2C)cc1	18.1
S=C(NC1CCCCC1)N1CCOCCOCCN(C(=S)NC2CCCCC2)CCOCC1	12.1
CCN1C[C@]2(C)CC[C@H](O)[C@]34C1[C@H](C[C@H]23)[C@@]1(O)C[C@H](OC)[C@H]2C[C@@H]4[C@@H]1C2O (stereo partly shown)	13
CCn1c(SCC(=O)Nc2ccc3c(c2)OCO3)nnc1-c1ccccc1O	17.2
COc1cccc(CN(CC2CCCO2)S(=O)(=O)c2ccc(-n3cnnn3)c(OC)c2)c1 (stereo not shown)	1.58
CCC(=O)N1CCc2cc(S(=O)(=O)NC(CC(C)C)C(=O)N3CCc4ccccc43)ccc21 (stereo not shown)	-9.56
S=c1[nH]c2ccccc2o1	7.26
COc1ccc(Nc2ncnc3ccccc23)c(OC)c1.Cl	-0.118
CC(=O)c1ccc(S(=O)(=O)N2CCN(C(=O)c3ccc(-n4cncn4)c([N+](=O)[O-])c3)CC2)cc1	11.3
Cc1c2ccccc2nc2c(F)c(NC(C)C)c(F)c(F)c12	1.74
Cc1cccc(C=Nc2ccc3c4c(cccc24)CC3)c1O	15.9
CCCc1nc(SCC(=O)NNC(=O)C2CCCCC2)c2ccccc2n1	0.14
COc1cccc2oc(-c3ccco3)cc(=O)c12	5.52
S=C(NCCN1CCOCC1)N1CCN(c2cccc(Cl)c2)CC1	0.588
Cc1ccc(Cl)cc1NC(=O)NCc1cccnc1	16.2
O=C1CC(C(=O)Nc2ccccc2)N=C(N2CCOCC2)N1 (stereo not shown)	5.54
CC(=O)c1cc(F)c(N2CCN(CCC#N)CC2)cc1C	9.12
CC(C)N1C(=O)CCC1C(=O)O (stereo not shown)	16.7
CCOC(=O)c1nc(SC)n(C)c1C(=O)OCC	9.58
O=C(c1ccc(F)cc1)N1CCCCC(Sc2nnc3ccccn23)C1=O (stereo not shown)	-34.6

Source: publication PMC4336329 (PLoS ONE, 2015)
